This note sets out measurements from the supplement of paper PMC10126150.

Sequences with one replicate were seen in a single cluster, so their values are uncertain.

The test system of this data set is ATP. Description: switch fluorescence ratio, 500 uM ATP over buffer (Cy3 cluster intensity, sum of 5 cycles each) (fold (ratio)); higher = stronger signal-on switching upon ATP binding; sequences stand for … in TCGTCGGCAGCGTCAGATGTGTATAAGAGACAGTTTTTTTTTTTTTTTTTTTTTTTTT…TC. To be noted: aptamer strand: ATP DNA aptamer (quencher-CACCTGGGGGAGTATTGCGGAGGAAGG + anchor), 100 nM annealed; ATP concentration: 500 uM; one replicate. The method, boiled down: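 Switching-strand clusters labelled with Cy3 on a modified Illumina MiSeq flow-cell were annealed to 100 nM quencher-labelled ATP aptamer, imaged in selection buffer, and re-imaged after 15 min with 500 uM ATP at 22 °C. This was done over five cycles with NaOH stripping and re-annealing in between. The fluorescence ratio is summed target-cycle over summed buffer-cycle Cy3 intensity per cluster, averaged per switch-domain sequence, excluding clusters outside 100-1000 RFU.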
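Note: ATP exposure 15 min at 22 °C before imaging.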

GATTCAAATG: the switch fluorescence ratio worked out at 0.987.

On to GCAACGCACA, for which the switch fluorescence ratio was 1.18. On to CAAGGGAGTT, for which the switch fluorescence ratio was 1.01. The same measure for CAAAGGATTC: 0.993; for TAGTTATTAA: 1.02. As for TGTGCTTCTC, the switch fluorescence ratio turned out to be 1.04. The same measure for GATGCTGG: 1.

Consider TCACACAGAC, for which the switch fluorescence ratio is 1.19. As for CCAATAGGGA, the switch fluorescence ratio is 1. Consider TACGGTAGTC, for which the switch fluorescence ratio came to 1.01. Take CTCGCGCGCA: the switch fluorescence ratio was found to be 1.03. The value for CCGTTGTAGG was 1.04. The value for GACACGAGAT was 2.01. The same measure for CGGTGGGTT: 1; for TTTTTGAGA: 0.997; for GATTGTGATA: 1.01.

As for TCAAGGAGGC, the switch fluorescence ratio is 0.891. In the case of ACCCTATTTA, the switch fluorescence ratio amounted to 1.01. As to TGGTTGACTG, the switch fluorescence ratio stood at 0.95. The same measure for TAAGCACTCA: 1.29; for CTTACTAAAC: 1.09. The same measure for CGCTAATGTG: 1.06; for GGACTAAGCT: 0.999. The value for TGGATGTGGT was 1.02; that for AGATAAAACA was 0.98. AAGTGAGGAG: the switch fluorescence ratio turned out to be 1.01. The value for GCTGCGTGA was 1.16. Take GCGAGTTTAT: the switch fluorescence ratio was determined as 0.99. In the case of TCGGAGGGA, the switch fluorescence ratio came out at 1. The same measure for CCACTAACAG: 1.06; for TTGAATGCTT: 0.984. The same measure for TTACGCAGCG: 1.01; for GGAATGGCCT: 1.07; for CGAGGGTTGA: 0.957. Take CACCTCTGCA: the switch fluorescence ratio turned out to be 4.22. The same measure for CCATGAATTC: 0.973. The same measure for AGGTTCGTCG: 0.988.

In the case of GCGAGTTGTC, the switch fluorescence ratio amounted to 0.949. Consider ATTCACCCCC, for which the switch fluorescence ratio was 1.3. The value for CTTTTTTCCT was 1.02; that for GATAGCGTAT was 0.983.

AAGTATTTGT: the switch fluorescence ratio was 0.989. The value for ATGTTGTCCG was 0.93; that for GTTATCTGTT was 0.961.

Consider AACCCGCGAT, for which the switch fluorescence ratio turned out to be 5.65. As to TGGCGTCGA, the switch fluorescence ratio was determined as 0.979. Regarding TTGCACATAT, the switch fluorescence ratio was 1.04. The value for ACACTCAATA was 1.11; that for GTTGGAACCA was 1.01; that for ACGGCGAGC was 1.01.

TACTCATGG: the switch fluorescence ratio turned out to be 1.05. As to CCATGCGGT, the switch fluorescence ratio is 1.06. For AACGTGGCA, the switch fluorescence ratio was 0.989. On to TCGCAAATGA, for which the switch fluorescence ratio was found to be 2.31. The same measure for GGCTGATCGG: 0.931; for GCGAATTGTT: 0.981; for AAATCCGACG: 1.52. The same measure for CTTGTGTTAG: 0.993; for GGCTGATAT: 1.03; for TGAGCTGTAT: 1.02. The value for TCGGAGGGCG was 1.01. On to TTCGCCCTTC, for which the switch fluorescence ratio turned out to be 0.955. For the sequence ACTTCTGTAG, the switch fluorescence ratio was found to be 1.45. The same measure for TATTTACGCA: 1.13; for CGTGGAGCAT: 1.07; for CAATCGCGGC: 1.62. On to CTAGGGGCTA, for which the switch fluorescence ratio was determined as 1.03. Turning to GACCGGGACG, the switch fluorescence ratio came out at 1.01. As for CGGTAGATCA, the switch fluorescence ratio worked out at 0.954.

In the case of AATTGGGCGT, the switch fluorescence ratio stood at 1.01.

On to AGTCCTGTTG, for which the switch fluorescence ratio turned out to be 0.997. The value for GTGGCACCGG was 0.998; that for TCCGGAGTGG was 2.17; that for GGGTATGATA was 1.03. The value for GAGAGTCGGT was 1.01; that for GATGTGGGCT was 0.988.

For the sequence TCGGTTTGAA, the switch fluorescence ratio turned out to be 1. TGCAGCCTGT: the switch fluorescence ratio came to 1. The same measure for CGGGCCTTA: 1.01; for TTGCGATAGC: 1.12.

As to TGCTTTAAAT, the switch fluorescence ratio came to 1.02. The same measure for GTCAGCTTAG: 0.998. Take TCCTACCCTC: the switch fluorescence ratio turned out to be 1.29.

Turning to ACCTTTGAAG, the switch fluorescence ratio amounted to 1.06. Turning to GCGGGCAATT, the switch fluorescence ratio was 1.01.

As for CGGCTAAGTC, the switch fluorescence ratio amounted to 1.1. The value for ATGGCCGCGT was 1.05; that for GAGGGTTGGT was 0.989; that for CTCGATGTAT was 1.07. For GCGTTGGGTT, the switch fluorescence ratio was found to be 0.988. The same measure for AGTGCGTGTT: 0.973; for CTTGGTACGC: 1.12; for AATTCACCTT: 1.13. The same measure for TTTGGCACGG: 0.981. For the sequence TGCGAAATGG, the switch fluorescence ratio is 1.11. The same measure for AACTTGTGAG: 1.04; for GGGAGTAGTG: 0.964. The same measure for CACTTAAGAT: 0.988.

For GTGCTAGTG, the switch fluorescence ratio stood at 1.09. AGGCGAGGGT: the switch fluorescence ratio worked out at 1.02. GCATGGGCGG: the switch fluorescence ratio worked out at 0.993.

As to CGAACTGCCA, the switch fluorescence ratio came to 1.04.

Turning to CTTCTGGGCA, the switch fluorescence ratio was determined as 1.14. The value for ATGAACGCAC was 2.12; that for TTTTATGGAA was 1; that for GCTCGAAGGG was 0.986. Take CAGCAGGACA: the switch fluorescence ratio was 1.18. Regarding CGAGCCACCG, the switch fluorescence ratio stood at 1.02. The same measure for GTTCTACCAC: 1.02. With CAGGGCGGCC, the switch fluorescence ratio turned out to be 0.953. The same measure for TTTACAAA: 1; for AGTTAGGGAA: 1.

As to GGCGTCCCCA, the switch fluorescence ratio was 0.969.

As for GAACTTAGTT, the switch fluorescence ratio was found to be 1.01. Take GCGCGGTGTA: the switch fluorescence ratio came out at 1.01. As to GAATAGGCCA, the switch fluorescence ratio is 0.968. As for TGTGTAGAAA, the switch fluorescence ratio turned out to be 1.01.

With GTAGACGATA, the switch fluorescence ratio was found to be 1.01. The value for AGGGTTAGAG was 1.01; that for TGCATTAGTA was 0.977.
